A lower IC50 marks a more sensitive line; a limit (>, <) means that the fit lies beyond the doses tested. AUC, from the same fit, is the share of area under the viability curve across the 256-fold dose range; the more sensitive the line, the further below 1. For some assays here: A top dose marked as inferred is not printed in the source and was worked back from the curve model.
Legend:
Assay in all cases: Viability of human cancer cell lines after 72 h of drug (GDSC screen)
17-AAG = compound: C=CCNC1=C2C[C@@H](C)C[C@H](OC)[C@H](O)[C@@H](C)/C=C(\C)[C@H](OC(N)=O)[C@@H](OC)/C=C\C=C(/C)C(=O)NC(=CC1=O)C2=O [17-AAG]; settings: top dose 1 µM
Experimental: (§1)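 Human cancer cell lines in 384-well plates, medium with 10% serum, drug for 72 h over a 256-fold dose range (nine 2-fold or five 4-fold steps up to the top dose). Adherent lines were fixed and stained with the nucleic acid dye Syto60, suspension lines read with resazurin; signal relative to control wells, capped at 0 and 100%. One two-parameter sigmoid per drug and line, fitted in a mixed model over all curves with the slope shared within a line.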

CCT018159 = compound: CCc1cc(-c2n[nH]c(C)c2-c2ccc3c(c2)OCCO3)c(O)cc1O [CCT018159]; settings: top dose 10 µM; top dose inferred
Experimental: as §1

BIX02189 = compound: CN(C)Cc1cccc(N=C(c2ccccc2)c2c(O)[nH]c3cc(C(=O)N(C)C)ccc23)c1 [BIX02189]; settings: top dose 20 µM; top dose inferred
Experimental: as §1

Dimethyloxalylglycine = compound: COC(=O)CNC(=O)C(=O)OC [Dimethyloxalylglycine]; settings: top dose 4000 µM; top dose inferred
Experimental: as §1

Doxorubicin = compound: COc1cccc2c1C(=O)c1c(O)c3c(c(O)c1C2=O)C[C@@](O)(C(=O)CO)C[C@@H]3O[C@H]1C[C@H](N)[C@H](O)[C@H](C)O1 [Doxorubicin]; settings: top dose 1.024 µM
Experimental: as §1

OSI-027 = compound: COc1cccc2cc(-c3nc([C@H]4CC[C@H](C(=O)O)CC4)n4ncnc(N)c34)[nH]c12 [OSI-027]; settings: top dose 20 µM
Experimental: as §1

Vismodegib = compound: CS(=O)(=O)c1ccc(C(=O)Nc2ccc(Cl)c(-c3ccccn3)c2)c(Cl)c1 [Vismodegib]; settings: top dose 10 µM; top dose inferred
Experimental: as §1

VX-11e = compound: Cc1cnc(Nc2ccc(F)cc2Cl)nc1-c1c[nH]c(C(=O)N[C@H](CO)c2cccc(Cl)c2)c1 [VX-11e]; settings: top dose 5.12 µM; top dose inferred
Experimental: as §1

TG101348 = compound: Cc1cnc(Nc2ccc(OCCN3CCCC3)cc2)nc1Nc1cccc(S(=O)(=O)NC(C)(C)C)c1 [TG101348]; settings: top dose 10.24 µM
Experimental: as §1

UNC1215 = compound: O=C(c1ccc(C(=O)N2CCC(N3CCCC3)CC2)c(Nc2ccccc2)c1)N1CCC(N2CCCC2)CC1 [UNC1215]; settings: top dose 1 µM; top dose inferred
Experimental: as §1

Row | Cell Line | AUC (17-AAG) | IC50 (17-AAG) [µM] | AUC (CCT018159) | IC50 (CCT018159) [µM] | AUC (BIX02189) | IC50 (BIX02189) [µM] | AUC (Dimethyloxalylglycine) | IC50 (Dimethyloxalylglycine) [µM] | AUC (Doxorubicin) | IC50 (Doxorubicin) [µM] | AUC (OSI-027) | IC50 (OSI-027) [µM] | AUC (Vismodegib) | IC50 (Vismodegib) [µM] | AUC (VX-11e) | IC50 (VX-11e) [µM] | AUC (TG101348) | IC50 (TG101348) [µM] | AUC (UNC1215) | IC50 (UNC1215) [µM]
1 | KE-37 (lymphoblastic leukaemia, suspension) | 0.961 | > 1 | 0.872 | 5.88 | 0.755 | 5.4 | 0.193 | 41.9 | 0.317 | 0.0227 | 0.148 | 0.154 | 0.989 | > 10 | 0.932 | > 5.12 | 0.488 | 0.598 | 0.987 | > 1
2 | OCI-AML2 (acute myeloid leukaemia, suspension) | 0.731 | 0.23 | 0.817 | 3.88 | 0.78 | 6.18 | 0.623 | 498 | 0.436 | – | 0.362 | 0.577 | 0.995 | > 10 | 0.472 | 0.273 | 0.641 | 1.42 | 0.993 | > 1
3 | CA46 (Burkitt lymphoma, suspension) | 0.974 | > 1 | 0.964 | > 10 | 0.833 | 14.3 | 0.361 | 99.9 | 0.636 | 0.157 | 0.16 | 0.103 | 0.983 | > 10 | 0.926 | > 5.12 | 0.695 | 2.36 | 0.97 | > 1
4 | HOS (osteosarcoma, adherent) | 0.778 | 0.338 | 0.824 | 4.68 | 0.992 | > 20 | 0.617 | 494 | 0.362 | 0.0286 | 0.983 | > 20 | 0.915 | > 10 | 0.988 | > 5.12 | 0.992 | > 10.2 | 0.99 | > 1
5 | CAL-39 (cervix, adherent) | 0.558 | 0.0904 | 0.881 | > 10 | 0.937 | > 20 | 0.186 | 27.3 | 0.58 | 0.107 | 0.918 | > 20 | 0.984 | > 10 | 0.926 | > 5.12 | 0.909 | > 10.2 | 0.984 | > 1
6 | KYSE-520 (oesophagus, adherent) | 0.634 | 0.166 | 0.851 | > 10 | 0.953 | > 20 | 0.634 | 668 | 0.645 | 0.186 | 0.684 | 4.91 | 0.971 | > 10 | 0.947 | > 5.12 | 0.842 | > 10.2 | 0.966 | > 1
7 | PA-TU-8902 (pancreas, adherent) | 0.932 | > 1 | 0.927 | > 10 | 0.959 | > 20 | 0.58 | 429 | 0.705 | 0.27 | 0.252 | 0.211 | 0.982 | > 10 | 0.866 | > 5.12 | 0.91 | > 10.2 | 0.981 | > 1
8 | SCH (stomach, adherent) | 0.984 | > 1 | 0.926 | > 10 | 0.988 | > 20 | 0.807 | 2250 | 0.988 | > 1.02 | 0.926 | > 20 | 0.983 | > 10 | 0.988 | > 5.12 | 0.958 | > 10.2 | 0.968 | > 1
9 | NCI-H1435 (lung adenocarcinoma, semi-adherent) | 0.978 | > 1 | 0.981 | > 10 | 0.981 | > 20 | 0.689 | 793 | 0.818 | 0.5 | 0.993 | > 20 | 0.988 | > 10 | 0.992 | > 5.12 | 0.993 | > 10.2 | 0.99 | > 1
10 | HuO-3N1 (osteosarcoma, adherent) | 0.771 | 0.507 | 0.891 | > 10 | 0.952 | > 20 | 0.655 | 775 | 0.85 | > 1.02 | 0.829 | 18.2 | 0.935 | > 10 | 0.979 | > 5.12 | 0.85 | > 10.2 | 0.98 | > 1
11 | IMR-5 (neuroblastoma, adherent) | 0.992 | > 1 | 0.989 | > 10 | 0.868 | 13.6 | 0.533 | 303 | 0.399 | 0.0355 | 0.669 | 3.39 | 0.987 | > 10 | 0.991 | > 5.12 | 0.727 | 2.5 | 0.986 | > 1
12 | SKN-3 (head and neck, adherent) | 0.977 | > 1 | 0.94 | > 10 | 0.922 | > 20 | 0.841 | 3560 | 0.946 | > 1.02 | 0.739 | 6.94 | 0.954 | > 10 | 0.942 | > 5.12 | 0.929 | > 10.2 | 0.978 | > 1
13 | EW-13 (Ewing sarcoma, suspension) | 0.983 | > 1 | 0.982 | > 10 | 0.683 | 4.31 | 0.24 | 40.1 | 0.256 | 0.0117 | 0.235 | 0.194 | 0.956 | > 10 | 0.939 | > 5.12 | 0.794 | 5.3 | 0.983 | > 1
14 | SCC-25 (head and neck, adherent) | 0.699 | – | 0.871 | > 10 | 0.957 | > 20 | 0.683 | 874 | 0.626 | 0.15 | 0.441 | 0.842 | 0.984 | > 10 | 0.805 | 3.01 | 0.872 | > 10.2 | 0.982 | > 1
15 | 23132-87 (stomach, adherent) | 0.578 | 0.103 | 0.891 | > 10 | 0.936 | > 20 | 0.943 | > 4000 | 0.319 | 0.0196 | 0.556 | 1.79 | 0.986 | > 10 | 0.921 | > 5.12 | 0.901 | > 10.2 | 0.98 | > 1
16 | KY821 (leukaemia, suspension) | 0.88 | 0.808 | 0.956 | > 10 | 0.979 | > 20 | 0.904 | > 4000 | 0.929 | > 1.02 | 0.839 | 11.2 | 0.981 | > 10 | 0.906 | > 5.12 | 0.901 | > 10.2 | 0.99 | > 1
17 | BC-1 (B-cell lymphoma, suspension) | 0.818 | 0.459 | 0.921 | > 10 | 0.931 | > 20 | 0.329 | 90.4 | 0.55 | 0.0859 | 0.087 | < 0.0781 | 0.986 | > 10 | 0.949 | > 5.12 | 0.579 | 1.02 | 0.958 | > 1
18 | EJM (lymphoid neoplasm, semi-adherent) | 0.966 | > 1 | 0.937 | > 10 | 0.949 | > 20 | 0.448 | 185 | 0.862 | 0.657 | 0.205 | 0.204 | 0.992 | > 10 | 0.954 | > 5.12 | 0.8 | 4.07 | 0.988 | > 1
19 | RPMI-6666 (Hodgkin lymphoma, suspension) | 0.923 | > 1 | 0.918 | > 10 | 0.775 | 9.53 | 0.469 | 203 | 0.51 | 0.0686 | 0.235 | 0.178 | 0.958 | > 10 | 0.862 | > 5.12 | 0.482 | 0.565 | 0.974 | > 1
20 | DJM-1 (skin, adherent) | 0.881 | > 1 | 0.894 | > 10 | 0.968 | > 20 | 0.484 | 227 | 0.582 | 0.107 | 0.884 | > 20 | 0.961 | > 10 | 0.972 | > 5.12 | 0.956 | > 10.2 | 0.986 | > 1
21 | NCI-H1693 (lung adenocarcinoma, adherent) | 0.959 | > 1 | 0.932 | > 10 | 0.829 | > 20 | 0.72 | 1570 | 0.682 | 0.283 | 0.584 | 2.43 | 0.947 | > 10 | 0.914 | > 5.12 | 0.85 | > 10.2 | 0.966 | > 1
22 | OE33 (oesophagus, adherent) | 0.799 | 0.589 | 0.902 | > 10 | 0.97 | > 20 | 0.546 | 341 | 0.757 | 0.415 | 0.821 | 14.6 | 0.973 | > 10 | 0.902 | > 5.12 | 0.945 | > 10.2 | 0.982 | > 1
23 | MS-1 (small cell lung carcinoma, suspension) | 0.963 | > 1 | 0.959 | > 10 | 0.939 | > 20 | 0.695 | 824 | 0.706 | 0.227 | 0.367 | 0.56 | 0.976 | > 10 | 0.981 | > 5.12 | 0.754 | 3.12 | 0.988 | > 1
24 | ECC10 (stomach, suspension) | 0.985 | > 1 | 0.973 | > 10 | 0.959 | > 20 | 0.846 | 3120 | 0.672 | 0.198 | 0.503 | 1.27 | 0.951 | > 10 | 0.913 | > 5.12 | 0.821 | 6.27 | 0.972 | > 1
25 | HDLM-2 (Hodgkin lymphoma, suspension) | 0.853 | 0.759 | 0.942 | > 10 | 0.989 | > 20 | 0.775 | 1560 | 0.828 | 0.618 | 0.908 | > 20 | 0.965 | > 10 | 0.989 | > 5.12 | 0.989 | > 10.2 | 0.984 | > 1
26 | NCI-H2081 (small cell lung carcinoma, suspension) | 0.965 | > 1 | 0.969 | > 10 | 0.989 | > 20 | 0.699 | 940 | 0.704 | 0.25 | 0.801 | 10.4 | 0.981 | > 10 | 0.987 | > 5.12 | 0.9 | > 10.2 | 0.988 | > 1

Source: the supplement of paper PMC4967469
